Data taken from patent publication US20220267464A1 (Hoffmann-La Roche, published 2022).

Legend:
[1] = target: T1, human CEACAM5 (carcinoembryonic antigen, CEA) on cells (human, UniProt P06731 35-685); experiment: cell-based or functional assay
T1 sequence: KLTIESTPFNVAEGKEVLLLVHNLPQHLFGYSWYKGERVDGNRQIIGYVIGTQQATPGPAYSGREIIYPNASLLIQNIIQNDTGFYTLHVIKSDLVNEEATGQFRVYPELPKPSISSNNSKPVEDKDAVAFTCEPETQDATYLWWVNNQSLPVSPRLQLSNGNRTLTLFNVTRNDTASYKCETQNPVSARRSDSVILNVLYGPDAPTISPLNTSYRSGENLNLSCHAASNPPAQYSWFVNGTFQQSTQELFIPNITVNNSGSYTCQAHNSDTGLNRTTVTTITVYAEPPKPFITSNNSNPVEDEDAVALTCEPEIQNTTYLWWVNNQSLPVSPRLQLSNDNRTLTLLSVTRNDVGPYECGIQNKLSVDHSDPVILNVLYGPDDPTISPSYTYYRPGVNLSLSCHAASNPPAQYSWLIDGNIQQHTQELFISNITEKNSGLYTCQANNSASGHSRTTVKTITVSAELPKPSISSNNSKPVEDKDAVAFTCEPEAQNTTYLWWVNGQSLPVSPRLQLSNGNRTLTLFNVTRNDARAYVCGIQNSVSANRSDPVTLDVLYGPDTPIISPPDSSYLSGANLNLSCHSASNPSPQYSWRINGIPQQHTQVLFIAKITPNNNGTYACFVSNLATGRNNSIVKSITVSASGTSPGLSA

[2] = target: T1, human CEACAM5 (carcinoembryonic …); experiment: cell-based or functional assay; set-up: AUC of activation curve, Jurkat-hu4-1BB-NFκB-luc2, no CEA+ cells / AUC of activation curve, Jurkat-hu4-1BB-NFκB-luc2 with CHO-k1-cyno CEACAM5 clone 8: unit not given beside the values
[3] = target: T2, cynomolgus monkey CEACAM5 on CHO-k1-cynoCEACAM5 clone 8 cells (cynomolgus monkey); experiment: cell-based or functional assay; set-up: AUC of activation curve, Jurkat-hu4-1BB-NFκB-luc2, no CEA+ cells / AUC of activation curve, Jurkat-hu4-1BB-NFκB-luc2 with CHO-k1-cyno CEACAM5 clone 8: unit not given beside the values
[4] = target: human 4-1BB on Jurkat-hu4-1BB-NFκB-luc2 reporter cells (human, UniProt Q07011 24-255); experiment: cell-based or functional assay; set-up: AUC of activation curve, Jurkat-hu4-1BB-NFκB-luc2, no CEA+ cells / AUC of activation curve, Jurkat-hu4-1BB-NFκB-luc2 with CHO-k1-cyno CEACAM5 clone 8: unit not given beside the values
[5] = target: T1, human CEACAM5 (carcinoembryonic …); experiment: flow cytometry, CHO-k1-huCEACAM5 clone 11
[6] = target: T1, human CEACAM5 (carcinoembryonic …); experiment: flow cytometry, CHO-k1-huCEACAM5 clone 12
[7] = target: T1, human CEACAM5 (carcinoembryonic …); experiment: flow cytometry, CHO-k1-huCEACAM5 clone 13
[8] = target: T1, human CEACAM5 (carcinoembryonic …); experiment: flow cytometry, CHO-k1-huCEACAM5 clone 17
[9] = target: T1, human CEACAM5 (carcinoembryonic …); experiment: flow cytometry, CHO-k1-huCEACAM5 clone 11; set-up: unit not given beside the values
[10] = target: T1, human CEACAM5 (carcinoembryonic …); experiment: flow cytometry, CHO-k1-huCEACAM5 clone 12; set-up: unit not given beside the values
[11] = target: T1, human CEACAM5 (carcinoembryonic …); experiment: flow cytometry, CHO-k1-huCEACAM5 clone 13; set-up: unit not given beside the values
[12] = target: T1, human CEACAM5 (carcinoembryonic …); experiment: flow cytometry, CHO-k1-huCEACAM5 clone 17; set-up: unit not given beside the values
[13] = target: T2, cynomolgus monkey CEACAM5 on …; experiment: flow cytometry, CHO-k1-cynoCEACAM5 clone 8; set-up: unit not given beside the values

Sequence of UniProt Q07011 (Q07011 24-255 limits assumed): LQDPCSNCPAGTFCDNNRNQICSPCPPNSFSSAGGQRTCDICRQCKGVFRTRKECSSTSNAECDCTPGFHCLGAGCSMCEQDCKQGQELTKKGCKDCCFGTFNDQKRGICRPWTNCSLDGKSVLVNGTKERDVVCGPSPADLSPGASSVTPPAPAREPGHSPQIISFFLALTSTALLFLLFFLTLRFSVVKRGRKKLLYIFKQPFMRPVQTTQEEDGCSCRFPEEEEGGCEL

B1: CEA(MFE23)-4-1BBL (Fc fusion)
chain 1: REGPELSPDDPAGLLDLRQGMFAQLVAQNVLLIDGPLSWYSDPGLAGVSLTGGLSYKEDTKELVVAKAGVYYVFFQLELRRVVAGEGSGSVSLALHLQPLRSAAGAAALALTVDLPPASSEARNSAFGFQGRLLHLSAGQRLGVHLHTEARARHAWQLTQGATVLGLFRVTPEIPAGLGGGGSGGGGSREGPELSPDDPAGLLDLRQGMFAQLVAQNVLLIDGPLSWYSDPGLAGVSLTGGLSYKEDTKELVVAKAGVYYVFFQLELRRVVAGEGSGSVSLALHLQPLRSAAGAAALALTVDLPPASSEARNSAFGFQGRLLHLSAGQRLGVHLHTEARARHAWQLTQGATVLGLFRVTPEIPAGLGGGGSGGGGSRTVAAPSVFIFPPSDRKLKSGTASVVCLLNNFYPREAKVQWKVDNALQSGNSQESVTEQDSKDSTYSLSSTLTLSKADYEKHKVYACEVTHQGLSSPVTKSFNRGE[human IgG1 Fc with changes not spelt out]
chain 2: REGPELSPDDPAGLLDLRQGMFAQLVAQNVLLIDGPLSWYSDPGLAGVSLTGGLSYKEDTKELVVAKAGVYYVFFQLELRRVVAGEGSGSVSLALHLQPLRSAAGAAALALTVDLPPASSEARNSAFGFQGRLLHLSAGQRLGVHLHTEARARHAWQLTQGATVLGLFRVTPEIPAGLGGGGSGGGGSASTKGPSVFPLAPSSKSTSGGTAALGCLVEDYFPEPVTVSWNSGALTSGVHTFPAVLQSSGLYSLSSVVTVPSSSLGTQTYICNVNHKPSNTKVDEKVEPKSC
heavy: QVKLQQSGAELVRSGTSVKLSCTASGFNIKDSYMHWLRQGPEQGLEWIGWIDPENGDTEYAPKFQGKATFTTDTSSNTAYLQLSSLTSEDTAVYYCNEGTPTGPYYFDYWGQGTTVTVSSASTKGPSVFPLAPSSKSTSGGTAALGCLVKDYFPEPVTVSWNSGALTSGVHTFPAVLQSSGLYSLSSVVTVPSSSLGTQTYICNVNHKPSNTKVDKKVEPKSCDKTHTCPPCPAPEAAGGPSVFLFPPKPKDTLMISRTPEVTCVVVDVSHEDPEVKFNWYVDGVEVHNAKTKPREEQYNSTYRVVSVLTVLHQDWLNGKEYKCKVSNKALGAPIEKTISKAKGQPREPQVCTLPPSRDELTKNQVSLSCAVKGFYPSDIAVEWESNGQPENNYKTTPPVLDSDGSFFLVSKLTVDKSRWQQGNVFSCSVMHEALHNHYTQKSLSLSP
light: ENVLTQSPAIMSASPGEKVTITCSASSSVSYMHWFQQKPGTSPKLWIYSTSNLASGVPARFSGSGSGTSYSLTISRMEAEDAATYYCQQRSSYPLTFGAGTKLELKRTVAAPSVFIFPPSDEQLKSGTASVVCLLNNFYPREAKVQWKVDNALQSGNSQESVTEQDSKDSTYSLSSTLTLSKADYEKHKVYACEVTHQGLSSPVTKSFNRGEC
notes: split trimeric 4-1BBL Fc (kih) P329G LALA with one anti-CEA Fab
- EC50, NFκB-luciferase in Jurkat-hu4-1BB-NFκB-luc2 with CHO-k1-human CEACAM5 clone 11 [1]: 0.08 nM
- EC50, NFκB-luciferase in Jurkat-hu4-1BB-NFκB-luc2 with CHO-k1-human CEACAM5 clone 12 [1]: 0.05 nM
- AUC of activation curve, Jurkat-hu4-1BB-NFκB-luc2 with CHO-k1-human CEACAM5 clone 11 [2]: 183000
- AUC of activation curve, Jurkat-hu4-1BB-NFκB-luc2 with CHO-k1-human CEACAM5 clone 12 [2]: 176000
- AUC of activation curve, Jurkat-hu4-1BB-NFκB-luc2 with CHO-k1-cyno CEACAM5 clone 8 [3]: 3940
- AUC of activation curve, Jurkat-hu4-1BB-NFκB-luc2, no CEA+ cells [4]: 2660
- EC50 [5]: 0.54 nM
- EC50 [6]: 2.25 nM
- EC50 [7]: 5.17 nM
- EC50 [8]: 0.6 nM
- AUC [9]: 33200
- AUC [10]: 109000
- AUC [11]: 168000
- AUC [12]: 36300
- AUC [13]: 430
